Results on 1 molecule are retold here after the supplement of paper PMC8728848.

The list shows a part of the results.

Holding throughout (assay): glycan array binding signal (z-score within array); higher = stronger binding
What all share (details): glycan notation: IUPAC condensed, linker removed

The target in one assay is GlcNAc(b1-3)Gal(b1-4)Glc. In outline:
(§1)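 Columns mapping to the same glycan were averaged after glycan names were converted to IUPAC-condensed notation. The data come from 3228 arrays in the Consortium for Functional Glycomics database, limited to those with an available protein sequence. Binding is reported as a within-array Z-score averaged across arrays of one protein sequence and across linkers.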

In assay [1] the target is GlcNAc(b1-3)Gal(b1-4)GlcNAc. In outline:
as §1

Assay [2] addresses GlcNAc(b1-3)Gal(b1-4)GlcNAc(b1-2)Man(a1-3)[GlcNAc(b1-3)Gal(b1-4)GlcNAc(b1-2)Man(a1-6)]Man(b1-4)GlcNAc(b1-4)GlcNAc. The procedure, abridged: as §1
Assay [3] addresses GlcNAc(b1-3)Gal(b1-4)GlcNAc(b1-2)Man(a1-3)[GlcNAc(b1-3)Gal(b1-4)GlcNAc(b1-2)Man(a1-6)]Man(b1-4)GlcNAc(b1-4)[Fuc(a1-6)]GlcNAc. The procedure, abridged:
as §1

Assay [4] addresses GlcNAc(b1-3)Gal(b1-4)GlcNAc(b1-2)[GlcNAc(b1-3)Gal(b1-4)GlcNAc(b1-6)]Man(a1-6)[GlcNAc(b1-3)Gal(b1-4)GlcNAc(b1-2)Man(a1-3)]Man(b1-4)GlcNAc(b1-4)GlcNAc. In outline:
as §1

Assay [5] addresses GlcNAc(b1-3)Gal(b1-4)GlcNAc(b1-3)Gal(b1-4)GlcNAc. The procedure, abridged: as §1
Assay [6] addresses GlcNAc(b1-3)Gal(b1-4)GlcNAc(b1-3)Gal(b1-4)GlcNAc(b1-2)Man(a1-3)[GlcNAc(b1-3)Gal(b1-4)GlcNAc(b1-3)Gal(b1-4)GlcNAc(b1-2)Man(a1-6)]Man(b1-4)GlcNAc(b1-4)GlcNAc. In outline: as §1
Assay [7] deals with GlcNAc(b1-3)Gal(b1-4)GlcNAc(b1-3)Gal(b1-4)GlcNAc(b1-2)Man(a1-3)[GlcNAc(b1-3)Gal(b1-4)GlcNAc(b1-3)Gal(b1-4)GlcNAc(b1-2)Man(a1-6)]Man(b1-4)GlcNAc(b1-4)[Fuc(a1-6)]GlcNAc. The procedure, abridged:
as §1

For assay [8], the target named is GlcNAc(b1-3)Gal(b1-4)GlcNAc(b1-3)Gal(b1-4)GlcNAc(b1-2)[GlcNAc(b1-3)Gal(b1-4)GlcNAc(b1-3)Gal(b1-4)GlcNAc(b1-6)]Man(a1-6)[GlcNAc(b1-3)Gal(b1-4)GlcNAc(b1-3)Gal(b1-4)GlcNAc(b1-2)Man(a1-3)]Man(b1-4)GlcNAc(b1-4)[Fuc(a1-6)]GlcNAc. In outline:
as §1

The target in assay [9] is GlcNAc(b1-3)Gal(b1-4)GlcNAc(b1-3)Gal(b1-4)GlcNAc(b1-3)Gal(b1-4)GlcNAc(b1-2)Man(a1-3)[GlcNAc(b1-3)Gal(b1-4)GlcNAc(b1-3)Gal(b1-4)GlcNAc(b1-3)Gal(b1-4)GlcNAc(b1-2)Man(a1-6)]Man(b1-4)GlcNAc(b1-4)GlcNAc. The procedure, abridged:
as §1

Assay [10] addresses GlcNAc(b1-3)Gal(b1-4)GlcNAc(b1-3)Gal(b1-4)GlcNAc(b1-3)Gal(b1-4)GlcNAc(b1-2)Man(a1-3)[GlcNAc(b1-3)Gal(b1-4)GlcNAc(b1-3)Gal(b1-4)GlcNAc(b1-3)Gal(b1-4)GlcNAc(b1-2)Man(a1-6)]Man(b1-4)GlcNAc(b1-4)[Fuc(a1-6)]GlcNAc. In outline:
as §1

For assay [11], the target named is GlcNAc(b1-3)Gal(b1-4)GlcNAc(b1-3)Gal(b1-4)GlcNAc(b1-3)Gal(b1-4)GlcNAc(b1-2)[GlcNAc(b1-3)Gal(b1-4)GlcNAc(b1-3)Gal(b1-4)GlcNAc(b1-3)Gal(b1-4)GlcNAc(b1-6)]Man(a1-6)[GlcNAc(b1-3)Gal(b1-4)GlcNAc(b1-3)Gal(b1-4)GlcNAc(b1-3)Gal(b1-4)GlcNAc(b1-2)Man(a1-3)]Man(b1-4)GlcNAc(b1-4)[Fuc(a1-6)]GlcNAc. The procedure, abridged: as §1
For assay [12], the target named is GlcNAc(b1-3)Gal(b1-4)GlcNAc(b1-3)Gal(b1-4)GlcNAc(b1-3)Gal(b1-4)GlcNAc(b1-3)Gal(b1-4)GlcNAc(b1-2)Man(a1-3)[GlcNAc(b1-3)Gal(b1-4)GlcNAc(b1-3)Gal(b1-4)GlcNAc(b1-3)Gal(b1-4)GlcNAc(b1-3)Gal(b1-4)GlcNAc(b1-2)Man(a1-6)]Man(b1-4)GlcNAc(b1-4)GlcNAc. The procedure, abridged:
as §1

Assay [13] concerns the target GlcNAc(b1-3)Gal(b1-4)GlcNAc(b1-3)Gal(b1-4)GlcNAc(b1-3)Gal(b1-4)GlcNAc(b1-3)Gal(b1-4)GlcNAc(b1-2)Man(a1-3)[GlcNAc(b1-3)Gal(b1-4)GlcNAc(b1-3)Gal(b1-4)GlcNAc(b1-3)Gal(b1-4)GlcNAc(b1-3)Gal(b1-4)GlcNAc(b1-2)Man(a1-6)]Man(b1-4)GlcNAc(b1-4)[Fuc(a1-6)]GlcNAc. The procedure, abridged: as §1
Assay [14] deals with GlcNAc(b1-3)Gal(b1-4)GlcNAc(b1-3)Gal(b1-4)GlcNAc(b1-3)Gal(b1-4)GlcNAc(b1-3)Gal(b1-4)GlcNAc(b1-2)[GlcNAc(b1-3)Gal(b1-4)GlcNAc(b1-3)Gal(b1-4)GlcNAc(b1-3)Gal(b1-4)GlcNAc(b1-3)Gal(b1-4)GlcNAc(b1-6)]Man(a1-6)[GlcNAc(b1-3)Gal(b1-4)GlcNAc(b1-3)Gal(b1-4)GlcNAc(b1-3)Gal(b1-4)GlcNAc(b1-3)Gal(b1-4)GlcNAc(b1-2)Man(a1-3)]Man(b1-4)GlcNAc(b1-4)[Fuc(a1-6)]GlcNAc. The procedure, abridged: as §1

Assay [15] concerns the target GlcNAc(b1-3)Gal(b1-4)GlcNAc(b1-3)Gal(b1-4)GlcNAc(b1-3)GalNAc. The procedure, abridged: as §1
Assay [16] concerns the target GlcNAc(b1-3)Gal(b1-4)GlcNAc(b1-3)GalNAc. In outline:
as §1

The target in assay [17] is GlcNAc(b1-3)Gal(b1-4)GlcNAc(b1-3)[GlcNAc(b1-3)Gal(b1-4)GlcNAc(b1-3)]GalNAc. The procedure, abridged: as §1

B1: PX9937A-bvu-521-23-521 (Bacteroides vulgatus) (protein)
chain: LDLAPEDYYGAGNFWKEASQPKAFMLGLHAQLRSYYDMFYTLGELRGGTQRVGTSSLNTSLNYADIRSQNISEDIPGISNWNGLYSPIMQVNHFIQEVENGCTFLDDATRSRYLGQAYGMRALYYFMLYRTFGGVPLITKVDILDGKPSADKFYVERATPEATMEFIKADINKSENYFGNNTSFDAYDWSRYATLMLKAEIYMWAAKVSITGFTATGATDLQTAKTALSGIIGHFELMDNFASIFSCDNKKNTEIIFAMPFIEGEASNDGGRFLYQDAVFLGQAYGRNGKVIEKDTLNLKGTGGVFRDEYTEDFWKTFKEGDSRRDATFMEYYMKNDNGTLSEFGCVMKKRIGTINSNDNRIYISDIPVYRYADALLMMAEIENGLNNPCASYINEVRKRAYGDTFEENKYTEGSYAENELAILQERDKEFVSEGKRWFDVLRMHDASGRSLVFSANANYPGTNPILGTEEAYKMLWPVNIGTLNVNPLLTQTPGYGKK
B1: the “glycan array binding signal (z-score)” value with GlcNAc(b1-3)Gal(b1-4)Glc is -0.241; in [1] it was -0.301; in assay [2], 2.54; in [3], 0.791; in assay [4] it was 0.223; in [5], -0.397. For the same molecule, the “glycan array binding signal (z-score)” value in assay [6] is 0.306; in assay [7] it was 0.476; in assay [8], -0.055; in [9] it was -0.408; in assay [10] it was -0.052; in [11], -0.128. The “glycan array binding signal (z-score)” value in [12] is -0.306; in assay [13] it was -0.708; in [14], 0.603; in assay [15], -0.527; in assay [16], -0.404; in assay [17] it was 1.31.
